In PubChem BioAssay AID360 (National Center for Advancing Translational Sciences (NCATS), 2006):
In all, about 48,000 compounds went through this assay and about 550 (1.1%) were called active. Another 4% or so got no clear call; they are omitted. No stated cut-off is given here; in the data, active means potency below about 15 µM; inconclusive means mostly about 16 µM to 33 µM; inactive means weaker than that. The list shows a part of the results.

target: Lysosomal acid glucosylceramidase (Homo sapiens) (UniProt P04062); test: Glucocerebrosidase; settings: purified enzyme, resorufin glucoside fluorescence (screen aimed at inhibitors), 20 min;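 further: the screen sought inhibitors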
Procedure, shortened: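 Normal human glucocerebrosidase (0.2 nM final) was assayed with resorufin β-D-glucopyranoside (30 uM final) in 50mM citric acid/KH2PO4, 10mM sodium taurocholate, 0.01% tween-20, pH 5.9. Compounds were titrated; fluorescence (Ex 548, Em 600) read after 20 min at RT.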
Potency means the concentration at half of the fitted maximal effect.

Chain of UniProt P04062 (P04062 whole entry, looked up): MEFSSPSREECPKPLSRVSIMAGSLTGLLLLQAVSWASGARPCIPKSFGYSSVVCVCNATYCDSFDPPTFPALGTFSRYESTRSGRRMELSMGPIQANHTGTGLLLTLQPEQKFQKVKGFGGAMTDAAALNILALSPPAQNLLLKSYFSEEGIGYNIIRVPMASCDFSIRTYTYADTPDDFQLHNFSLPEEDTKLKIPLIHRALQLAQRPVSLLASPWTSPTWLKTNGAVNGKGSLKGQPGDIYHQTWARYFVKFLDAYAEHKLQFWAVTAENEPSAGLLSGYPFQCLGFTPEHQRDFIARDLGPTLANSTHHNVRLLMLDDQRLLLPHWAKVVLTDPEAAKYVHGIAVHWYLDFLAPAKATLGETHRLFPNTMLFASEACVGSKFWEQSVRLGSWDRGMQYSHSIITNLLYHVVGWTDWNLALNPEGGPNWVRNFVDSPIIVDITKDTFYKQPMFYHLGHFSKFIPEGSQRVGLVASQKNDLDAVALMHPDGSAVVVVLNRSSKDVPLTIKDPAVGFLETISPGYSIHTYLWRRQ

Potency, inactive:
O=C(Cn1nnc2ccccc21)C1CC1 > 76.9 µM
Cc1ccc(S(=O)(=O)C2(C(=O)O)CCCC2)cc1C > 76.9 µM
Cc1cc2ncn(-c3ncnc4sc(C)c(C)c34)c2cc1C > 76.9 µM
O=C(O)CSc1nnc(Cn2nnc3ccccc32)n1CCc1ccccc1 > 76.9 µM
CC1=C(C(=O)N(C)C)C(c2cccc(Cl)c2)NC(=O)N1 (stereo not drawn) > 76.9 µM
Cc1nc2nc(-c3ccccc3)[nH]n2c(=O)c1Cc1ccccc1 > 76.9 µM
COc1cccc(Nc2nnc(SCC(=O)N3CC(C)OC(C)C3)s2)c1 (stereo not drawn) > 76.9 µM
O=S(=O)(NCc1ccccc1)c1ccc(S(=O)(=O)N(Cc2ccccn2)Cc2ccco2)cc1 > 76.9 µM
CCOC(=O)c1c(Nc2ccccc2N)cc(C)nc1C > 76.9 µM
Cc1cnn(C(=S)NCc2ccco2)c1 > 76.9 µM
O=C1Nc2cc(C(=O)N3CCN(Cc4ccccc4)CC3)ccc2SC1N1CCOCC1 (stereo not drawn) > 76.9 µM
CCN(CC)c1ccc2oc(=O)c(C)nc2c1 > 76.9 µM
Cc1nc2ccccc2c2oc(C(=O)NCc3ccccn3)cc12 > 76.9 µM
O=C(OCCOCCN=C1NS(=O)(=O)c2ccccc21)c1ccncc1 > 76.9 µM
Cc1ccc(OCC(=O)N2CCCCCC2)c(C)c1 > 76.9 µM
Cc1ccc(Cn2ccc(NC(=O)c3cc(-c4ccccc4)on3)n2)cc1 > 76.9 µM
COC(=O)CSc1nnc(-c2cccnc2)n1-c1cc(OC)cc(OC)c1 > 76.9 µM
Cc1ccc(-n2c(N)c(C(=O)N3CCOCC3)sc2=S)c(C)c1 > 76.9 µM
CCOC(=O)c1oc2cccc(OCC(O)CNC(C)C)c2c1C (stereo not drawn) > 76.9 µM
CC(C)Cn1c(NCCN(C)C)nc2c1c(=O)[nH]c(=O)n2C > 76.9 µM
CCCSc1nc2c(c(=O)[nH]c(=O)n2C)n1CCc1ccccc1 > 76.9 µM
COc1ccc(CCN2C(=O)CC(Sc3ncccc3C(=O)O)C2=O)cc1OC (stereo not drawn) > 76.9 µM
CCCCOCCCn1c(-c2ccco2)nc2nc3ccccc3nc21 > 76.9 µM
CCCn1c(SCc2ccc(Cl)cc2)nc2c1c(=O)[nH]c(=O)n2C > 76.9 µM
CSC(=NCc1cccnc1)NS(=O)(=O)c1cccs1 > 76.9 µM
NC(=O)NC(=O)COC(=O)c1ccccc1Oc1ccccc1 > 76.9 µM
CCOc1cc(C2C(C(=O)O)c3cc(OCC)c(OCC)cc3C(=O)N2C)ccc1O (stereo not drawn) > 76.9 µM
COC(=O)c1cc(NS(=O)(=O)c2ccc(OC)c(OC)c2)ccc1Cl > 76.9 µM
O=C(CN1CCN(S(=O)(=O)c2ccc(Cl)cc2)CC1)Nc1ccc2c(c1)OCCO2 > 76.9 µM
O=C(c1ccc(NC(=O)C2(c3ccccc3)CCOCC2)cc1)N1CCOCC1 > 76.9 µM
O=C(c1ccco1)N1C(=O)c2cccc3c(S(=O)(=O)N4CCCC4)ccc1c23 > 76.9 µM
COc1ccc(Br)cc1CNC(=O)C1CCN(S(=O)(=O)N2CCCC2)CC1 > 76.9 µM
CC(=O)Nc1ccc(C(=O)CSc2nnnn2C(C)C)cc1 > 76.9 µM
CC1(C)Cc2ccccc2-c2nnc(SCC(=O)Nc3ccc4c(c3)OCO4)n21 > 15.4 µM
Cc1ccc(N(CC(=O)NCC2CCCO2)S(C)(=O)=O)cc1Cl (stereo not drawn) > 76.9 µM
CC(=O)N1CCN(Cc2nc3cc(NC(=O)C4CCCCC4)ccc3n2C)CC1 > 76.9 µM
O=C(Cc1cccs1)NCc1cccs1 > 76.9 µM
Fc1cc(F)c2nc(N3CCOCC3)sc2c1 > 76.9 µM
O=C(NCC1CCCO1)c1nn2cccnc2c1Cl (stereo not drawn) > 76.9 µM
COc1ccccc1-n1nnnc1SCC(=O)NC1CCCC1 > 76.9 µM
O=C(c1cc2ccccc2oc1=O)N1CCN(C(=O)C2CCCO2)CC1 (stereo not drawn) > 76.9 µM
COc1ccc(-c2nc(C#N)c(N3CCN(c4cccc(Cl)c4)CC3)o2)cc1OC > 76.9 µM
CCOC(=O)Cn1c(CN(Cc2ccccc2)Cc2ccccc2)nc2c1c(=O)[nH]c(=O)n2C > 76.9 µM
CCCn1c(SCC(=O)N2CCCc3ccccc32)nnc1-c1ccccn1 > 76.9 µM
COc1cccc(C2=CC(c3ccc(N(C)C)cc3)n3ncnc3N2)c1 (stereo not drawn) > 76.9 µM
CCOC(=O)c1ccc(N2C(=O)c3n[nH]c(C)c3C2c2ccco2)cc1 (stereo not drawn) > 76.9 µM
COc1ccccc1CCNC(=O)C1CCCO1 (stereo not drawn) > 76.9 µM
CCN(CC)CCN1C(=O)C(O)=C(C(=O)c2cccs2)C1c1ccc(C)o1 (stereo not drawn) > 76.9 µM
Cn1c(=O)c(=O)n(C)c2cc(S(=O)(=O)NCCc3ccccc3)ccc21 > 76.9 µM
COc1ccc(C(=O)NC(C)c2nnc(SCC(=O)Nc3nc4ccccc4s3)n2C)cc1 (stereo not drawn) > 76.9 µM
COCC(=O)N(Cc1cc2ccccc2[nH]c1=O)c1ccc(OC)cc1 > 76.9 µM
Cc1ccc(SCCCCN2C(=O)NC(C)(C)C2=O)cc1 > 76.9 µM
Nc1nc2n(n1)C(c1cccs1)CC(c1ccccc1)N2 (stereo not drawn) > 76.9 µM
O=C(c1ccccc1CCc1ccccc1)N1CCOCC1 > 76.9 µM
COCCOC(=O)C1=C(C)Nc2nc(C)nn2C1c1ccccc1 (stereo not drawn) > 76.9 µM
O=C(NCc1ccccc1)NC1(C(=O)N2CCN(c3ccccc3)CC2)CCCCC1 > 76.9 µM
Cn1c(CNc2nc(-c3ccccc3)cs2)nnc1SCC(=O)N1CCc2ccccc21
Nc1c(-c2ccccc2)n[nH]c1-c1ccccc1 > 76.9 µM
O=c1[nH]c2ccsc2c(=O)n1-c1ccc(F)c(Cl)c1 > 76.9 µM
COCCCNC(=O)c1ccc(NS(C)(=O)=O)cc1 > 76.9 µM
O=C(CSc1nnc(COc2ccc(Cl)cc2)n1Cc1ccco1)c1ccccc1F > 76.9 µM
COc1ccccc1C(c1nnnn1C(C)(C)C)N1CCN(Cc2ccncc2)CC1 (stereo not drawn) > 76.9 µM
COc1cc(C(=O)Nc2ccc(NC(=O)C(C)C)nc2)cc(OC)c1OC > 76.9 µM
CCOC(=O)c1cc2c(=O)n3ccccc3nc2n(Cc2ccco2)c1=NC(=O)c1cccnc1 > 76.9 µM
COc1cc(S(=O)(=O)NCCN2CCOCC2)c(OC)cc1Cl > 76.9 µM
COc1ccc(NC(=O)c2cnc3sccn3c2=O)cc1 > 76.9 µM
O=C(CCN1C(=O)C2C3C=CC(C3)C2C1=O)N1CCN(c2cccc(Cl)c2)CC1 (stereo not drawn) > 76.9 µM
CSc1nc(C)cc(OCC(=O)n2nc(C)cc2C)n1 > 76.9 µM
COc1cc(OC)cc(C(=O)N2CCN(c3ncccn3)CC2)c1 > 76.9 µM
Cc1ccc(Oc2ccccc2)c(NC=O)c1 > 76.9 µM
CCS(=O)(=O)n1nc(C(=O)N2CCOCC2)nc1N > 76.9 µM
Nn1c(SCC(=O)N2CCOCC2)nnc1-c1ccc(Cl)cc1Cl > 76.9 µM
CC(=O)Nc1cccc(NC(=O)CSc2nnnn2C(C)C)c1 > 76.9 µM
CN(Cc1cccs1)C(=O)COc1ccc(-c2nnco2)cc1 > 76.9 µM
O=C(Nc1cccnc1)c1ccc(Br)s1
COc1cccc(NC(=O)NC2CCN(Cc3nnnn3Cc3ccc(F)cc3)CC2)c1 > 76.9 µM
C=CCn1c(=N)c(C(=O)NCCCOC)cc2c(=O)n3ccccc3nc21 > 76.9 µM
COc1ccc(S(=O)(=O)N2CCC(C(=O)Nc3ccc(OC)c(OC)c3)CC2)cc1C > 76.9 µM
Cc1ccc(-n2c(SCc3cn4ccsc4n3)nc3ccccc3c2=O)cc1
COCc1nc(-c2ccc(-c3ccccc3)nc2OC)no1
N#Cc1c(N)c(C#N)c(-c2ccc(O)cc2)c2c1CCCC2 > 76.9 µM
CCN(CC)CCN(Cc1cc2cc(C)ccc2[nH]c1=O)C(=O)Nc1ccccc1OC > 76.9 µM
CCOC(=O)C1=C(CN2CCSCC2)NC(=O)NC1c1cc(C)ccc1C (stereo not drawn) > 76.9 µM
O=C(CSc1nc(-c2cccs2)cc(C(F)(F)F)n1)NCc1ccco1 > 76.9 µM
Cc1ccc2[nH]cc(C(=O)CN3CCN(c4ccccn4)CC3)c2c1 > 76.9 µM
Cc1cc(C)c(C#N)c(SCC(=O)N(C)C2CCCCC2)n1 > 76.9 µM
CCN1CCN(C(=O)CN(C)S(=O)(=O)c2ccc(OC)cc2)CC1 > 76.9 µM
Cc1cccc(-c2nnc(SCC#N)n2Cc2ccccc2)c1 > 76.9 µM
COC(=O)CSc1nc2ccccc2c(=O)n1C > 76.9 µM
O=C(COC(=O)c1ccccn1)NCCCc1ccccc1 > 76.9 µM
CC(C)(C)OC(=O)N1CCC(C(=O)O)CC1 > 76.9 µM
O=C(COc1ccc(F)c(Cl)c1)c1ccc[nH]1 > 76.9 µM
CC(=O)Nc1ccc(S(=O)(=O)Nc2cccc(N(C)S(C)(=O)=O)c2)cc1 > 76.9 µM
